# Laboratory results reported in the supplement of paper PMC11417369.
# The other results are listed elsewhere or left out.
# Test system: PfHDP1 homeodomain (GST-tagged)
# Experiment: gcPBM binding intensity (ln(normalized median fluorescence intensity)); higher = stronger DNA binding
# Outline: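 Plasmodium falciparum DNA-binding domains carrying a GST tag were expressed in E. coli and applied for 1 h, at about 25 μg on average, to an Agilent 4 × 180k array. The array held primer-extended double-stranded 36-bp intergenic genomic probes together with negative controls, and binding took place in 1× PBS with 1% milk, 0.2 mg/ml BSA, 0.5% salmon testes DNA and 0.03% Triton X-100. An Alexa488 anti-GST antibody detected bound protein, and the array was scanned at 488 nm. Binding intensity is taken as the highest Masliner-normalised natural-log median intensity across replicate spots of either probe orientation.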
row,Sequence,gcPBM binding intensity (ln)
1,TAATTTATAAGGTATAACAACAATTGCATCTATCAC [XGTACX_negctrl_site314],7
2,GAAAGAATAAAATTTACACACATATATAAATACATA [CACACA_site5273],6.2
3,AAATATTTTAACGAGAGTACATAATAACAATTTATG [XGTACX_site3865],6.35
4,AAAAAAAAAAAATACACACACACATATATATATATA [CACACA_site731],9.39
5,TTTTTTTTTTTTTATTGTACTAAATTATAGAGGGGA [XGTACX_site2609],6.31
6,TATATATTTGTAACGGGTACGTAGGTGTATATTCCA [XGTACX_site6028],6.77
7,AGCCACGTGGTATATACACACATAATCAAATAAAAT [CACACA_site9364],6.66
8,GAAACGATTTAATACACACACGTATTATAGATATAT [CACACA_site6666],6.74
9,TTTTTTTTTTTTTTGACACACATAATAAAATACAAA [CACACA_site3080],6.56
10,AATAAGCATATACAAACATGCATACATATAAATAAA [TGCATGCA_site338],6.63
11,CTACATACAAGAATTAAACACACACTAATTATAAAT [CACACA_site8986],6.83
12,CCTCAATATTCACATACACACAATATCATCGAAGTA [CACACA_site1676],6.87
13,AATAAATATAGGTACACACACAAATATGTACATATC [CACACA_site6976],6.71
14,AAAGAAAGGAATACGACACACAAAAAAAAAATATAT [CACACA_site1934],6.72
15,TAGTTGCACATGTATACACACAAAAAATATTTTATG [CACACA_site475],10.4
16,AAGTGGTTATAATCAACACACGTGGAATGTACTTTA [CACACA_site3700],6.44
17,AAGAAACCATAATATGCATGCACATATTAATAAATA [TGCATGCA_site693],9.2
18,TTATAATTTTAATGTGCACACAATTAAAATATTATA [CACACA_site5172],10.2
19,TGTAAGAAATTGAGCGCACACATACATCTGTGGGAT [CACACA_site4945],7

row,Sequence,gcPBM binding intensity (ln)
1,TATTGACAAAAAAAAAAAAGGTAAAAAAGAAAGAAA [GTGCAC_negctrl_site418],6.28
2,TTTTGTTTATGTGTGCATTATATTATATTTTTTATT [TGCATGCA_negctrl_site146],10.2
3,TATAAATAAATATACACACACACATATAAATATGTA [CACACA_site6504],6.76
4,ATTATATATAAGAAGAGTACTGAATATGTGCAATAT [XGTACX_site4471],11.2
5,TTATAGAAAATGGAATAGAATGGAATGGAAGAAATA [CACACA_negctrl_site1086],7.13
6,TATATACACCCACATACACACAAATAAAAAAACACC [CACACA_site3414],7.5
7,GACATTGATACCAGTAGTACCTATAGATGTTTGTTT [XGTACX_site5736],6.34
8,TTATGGAATAATCACGTACACACAAGAAAAAAAAAA [CACACA_site526],6.59
9,ATATAAGGATTAATATGTACATATATATATATATTT [XGTACX_site1390],6.48
10,TTTGTATATTATTTTAGTACATAACATTGAAGATAT [XGTACX_site6680],6.31
11,TATTTTGAAACTAAAAGACATAGAGAAAACAAAAAA [CACACA_negctrl_site1306],6.56
12,ATGTTGCACAGTGGAAGAATTAAAAATAAATAAATA [XGTACX_negctrl_site581],9.91
13,GTGGAACGTATATTTTCACACACTCTCAAAAGTACA [CACACA_site8722],6.42
14,AAATAATGTTTGAATTGTACACATATTTGTGTTTCT [XGTACX_site4603],6.34
15,ATGAACATATCAATTCTCAAAATAGGATGAGAGCAT [CACACA_negctrl_site230],6.61
16,AATTTTTGTATTTTTAGTACTTAATTTCAAAATAAC [XGTACX_site4234],6.29
17,AATATTATAAATGTCACACATATATTCAAATATATA [CACACA_site4736],6.34
18,GTGGAACATATGAACTCACACACATTTTCACTTAAA [CACACA_site3683],6.38
19,GAATGGACGTTAGGGGGTACGTATAAAATTTATCAA [XGTACX_site683],7.4

row,Sequence,gcPBM binding intensity (ln)
1,TTTGTGATATTATATTGTACCCTATATTTATTATAA [XGTACX_site4240],6.5
2,TTTATTGACAATTTATGTACATATAATTGAAAAATA [XGTACX_site6634],6.51
3,GTTCAATTTTTAGGAAGTACAAAAAAAAAAAAGAAA [XGTACX_site7286],6.12
4,ATGGTACATACATACACACACACAAAAAAAAAAAAA [CACACA_site1578],6.41
5,TATATTTGTATTGTTTGTACTTATATGAATTTATAT [XGTACX_site4228],6.4
6,TATATTAGTGTTGACACACACAAAAAAAAAAAAAAA [CACACA_site1396],6.09
7,CAAACCTATATACAAACATGCAATCCACATATTGGT [TGCATGCA_site756],6.41
8,ATTTGTTACGGACATGCATGCGAATCAGGGTATATA [TGCATGCA_site154],7.34
9,TATAAAAAAAAAAAATATATATATATATAAATATAA [TGCATGCA_negctrl_site367],6.34
10,TAAAAATATTTTCATTGTACATATATATAAATATAT [XGTACX_site1123],6.46
11,TAAGAAAAAAAAAAAAAAAAAAAAAAAAAAAAAAAA [CACACA_negctrl_site760],6.15
12,TAATGAAATTGTAGTAGTACCTTCTTATAAATAAAA [XGTACX_site6747],5.97
13,TCACCTATTTTTAACTGTACTGAAATGATATATATA [XGTACX_site1366],6.72
14,TTGAGGAAATAACAGTGTACAAACAAATTATTACCA [XGTACX_site7082],6.18
15,TACATATATATATATATATATATATATATCATTATG [XGTACX_negctrl_site293],7.58
16,CTTATATTAATTATTACACACATATTTATAAATGCA [CACACA_site6501],6.66
17,TTTTCCATAAGAATTACACACAGAAAGGATAAGTAT [CACACA_site105],6.93
18,ATAGAAATATTATATTGTACGAACAGTTATTAACAA [XGTACX_site2137],6.56
